Experimental data as given in the supplement of paper PMC8728848.
The list shows a part of the results.

Tests used:
Assay in all cases: glycan array binding signal (z-score within array); higher = stronger binding
Conditions in all cases: glycan notation: IUPAC condensed, linker removed
Fuc(a1-2)Gal = target: Fuc(a1-2)Gal
Outline: (§1)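 Glycan array binding is given as a within-array Z-score, which can be read as non-binding when negative. The arrays, 3228 of them, came from the Consortium for Functional Glycomics database and were retained only where the protein sequence was available. Z-scores were averaged across arrays of the same protein sequence at different concentrations or buffers and across linkers.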

Fuc(a1-2)Gal(b1-3)GalNAc = target: Fuc(a1-2)Gal(b1-3)GalNAc
Outline: as §1

[1] = target: Fuc(a1-2)Gal(b1-3)GalNAc(a1-3)[Fuc(a1-2)]Gal(b1-4)Glc
Outline: as §1

[2] = target: Fuc(a1-2)Gal(b1-3)GalNAc(a1-3)[Fuc(a1-2)]Gal(b1-4)GlcNAc
Outline: as §1

[3] = target: Fuc(a1-2)Gal(b1-3)GalNAc(b1-3)Gal
Outline: as §1

[4] = target: Fuc(a1-2)Gal(b1-3)GalNAc(b1-3)Gal(a1-4)Gal(b1-4)Glc
Outline: as §1

[5] = target: Fuc(a1-2)Gal(b1-3)GalNAc(b1-4)[Neu5Ac(a2-3)]Gal(b1-4)Glc
Outline: as §1

Fuc(a1-2)Gal(b1-3)GlcNAc = target: Fuc(a1-2)Gal(b1-3)GlcNAc
Outline: as §1

[6] = target: Fuc(a1-2)Gal(b1-3)GlcNAc(b1-2)Man(a1-3)[Fuc(a1-2)Gal(b1-3)GlcNAc(b1-2)Man(a1-6)]Man(b1-4)GlcNAc(b1-4)GlcNAc
Outline: as §1

[7] = target: Fuc(a1-2)Gal(b1-3)GlcNAc(b1-2)Man(a1-3)[Fuc(a1-2)Gal(b1-3)GlcNAc(b1-2)Man(a1-6)]Man(b1-4)GlcNAc(b1-4)[Fuc(a1-6)]GlcNAc
Outline: as §1

[8] = target: Fuc(a1-2)Gal(b1-3)GlcNAc(b1-3)Gal(b1-4)Glc
Outline: as §1

[9] = target: Fuc(a1-2)Gal(b1-3)GlcNAc(b1-3)GalNAc
Outline: as §1

[10] = target: Fuc(a1-2)Gal(b1-3)GlcNAc(b1-3)[Fuc(a1-2)Gal(b1-3)GlcNAc(b1-6)]GalNAc
Outline: as §1

[11] = target: Fuc(a1-2)Gal(b1-3)GlcNAc(b1-3)[Gal(b1-4)GlcNAc(b1-6)]Gal(b1-4)Glc
Outline: as §1

[12] = target: Fuc(a1-2)Gal(b1-3)GlcNAc(b1-3)[Neu5Ac(a2-6)Gal(b1-4)GlcNAc(b1-6)]Gal(b1-4)Glc
Outline: as §1

[13] = target: Fuc(a1-2)Gal(b1-3)GlcNAc6S
Outline: as §1

[14] = target: Fuc(a1-2)Gal(b1-3)[Fuc(a1-4)]GlcNAc
Outline: as §1

[15] = target: Fuc(a1-2)Gal(b1-3)[Fuc(a1-4)]GlcNAc(b1-2)Man(a1-3)[Fuc(a1-2)Gal(b1-3)[Fuc(a1-4)]GlcNAc(b1-2)Man(a1-3)]Man(b1-4)GlcNAc(b1-4)GlcNAc
Outline: as §1

[16] = target: Fuc(a1-2)Gal(b1-3)[Fuc(a1-4)]GlcNAc(b1-2)Man(a1-3)[Fuc(a1-2)Gal(b1-3)[Fuc(a1-4)]GlcNAc(b1-2)Man(a1-6)]Man(b1-4)GlcNAc(b1-4)[Fuc(a1-6)]GlcNAc(b1-4)[Fuc(a1-6)]GlcNAc
Outline: as §1

[17] = target: Fuc(a1-2)Gal(b1-3)[Fuc(a1-4)]GlcNAc(b1-3)[Fuc(a1-3)[Gal(b1-4)]GlcNAc(b1-6)]Gal(b1-4)Glc
Outline: as §1

[18] = target: Fuc(a1-2)Gal(b1-3)[Fuc(a1-4)]GlcNAc(b1-3)[Gal(b1-4)GlcNAc(b1-6)]Gal(b1-4)Glc
Outline: as §1

[19] = target: Fuc(a1-2)Gal(b1-4)Fuc(a1-3)]GlcNAc(b1-2)Man(a1-3)[Fuc(a1-2)Gal(b1-4)[Fuc(a1-3)]GlcNAc(b1-2)Man(a1-6)]Man(b1-4)GlcNAc(b1-4)GlcNAc
Outline: as §1

Fuc(a1-2)Gal(b1-4)Glc = target: Fuc(a1-2)Gal(b1-4)Glc
Outline: as §1

Fuc(a1-2)Gal(b1-4)Glc6S = target: Fuc(a1-2)Gal(b1-4)Glc6S
Outline: as §1

Fuc(a1-2)Gal(b1-4)GlcNAc = target: Fuc(a1-2)Gal(b1-4)GlcNAc
Outline: as §1

[20] = target: Fuc(a1-2)Gal(b1-4)GlcNAc(b1-2)Man
Outline: as §1

[21] = target: Fuc(a1-2)Gal(b1-4)GlcNAc(b1-2)Man(a1-3)[Fuc(a1-2)Gal(b1-4)GlcNAc(b1-2)Man(a1-6)]Man(b1-4)GlcNAc(b1-4)GlcNAc
Outline: as §1

[22] = target: Fuc(a1-2)Gal(b1-4)GlcNAc(b1-2)Man(a1-3)[Fuc(a1-2)Gal(b1-4)GlcNAc(b1-2)Man(a1-6)]Man(b1-4)GlcNAc(b1-4)[Fuc(a1-6)]GlcNAc
Outline: as §1

[23] = target: Fuc(a1-2)Gal(b1-4)GlcNAc(b1-2)[Fuc(a1-2)Gal(b1-4)GlcNAc(b1-4)]Man(a1-3)[Fuc(a1-2)Gal(b1-4)GlcNAc(b1-2)Man(a1-6)]Man(b1-4)GlcNAc(b1-4)GlcNAc
Outline: as §1

[24] = target: Fuc(a1-2)Gal(b1-4)GlcNAc(b1-3)Gal(b1-4)GlcNAc
Outline: as §1

[25] = target: Fuc(a1-2)Gal(b1-4)GlcNAc(b1-3)Gal(b1-4)GlcNAc(b1-2)Man(a1-3)[Fuc(a1-2)Gal(b1-4)GlcNAc(b1-3)Gal(b1-4)GlcNAc(b1-2)Man(a1-6)]Man(b1-4)GlcNAc(b1-4)GlcNAc
Outline: as §1

[26] = target: Fuc(a1-2)Gal(b1-4)GlcNAc(b1-3)Gal(b1-4)GlcNAc(b1-3)Gal(b1-4)GlcNAc
Outline: as §1

[27] = target: Fuc(a1-2)Gal(b1-4)GlcNAc(b1-3)GalNAc
Outline: as §1

[28] = target: Fuc(a1-2)Gal(b1-4)GlcNAc(b1-3)[Fuc(a1-2)Gal(b1-4)GlcNAc(b1-6)]GalNAc
Outline: as §1

[29] = target: Fuc(a1-2)Gal(b1-4)GlcNAc(b1-3)[Fuc(a1-3)[Gal(b1-4)]GlcNAc(b1-6)]Gal(b1-4)Glc
Outline: as §1

[30] = target: Fuc(a1-2)Gal(b1-4)GlcNAc(b1-6)GalNAc
Outline: as §1

[31] = target: Fuc(a1-2)Gal(b1-4)GlcNAc6S
Outline: as §1

[32] = target: Fuc(a1-2)Gal(b1-4)[Fuc(a1-3)]GlcNAc
Outline: as §1

[33] = target: Fuc(a1-2)Gal(b1-4)[Fuc(a1-3)]GlcNAc(b1-2)Man(a1-3)[Fuc(a1-2)Gal(b1-4)[Fuc(a1-3)]GlcNAc(b1-2)Man(a1-6)]Man(b1-4)GlcNAc(b1-4)[Fuc(a1-6)]GlcNAc
Outline: as §1

[34] = target: Fuc(a1-2)Gal(b1-4)[Fuc(a1-3)]GlcNAc(b1-2)[Fuc(a1-2)Gal(b1-4)[Fuc(a1-3)]GlcNAc(b1-4)]Man(a1-3)[Fuc(a1-2)Gal(b1-4)[Fuc(a1-3)]GlcNAc(b1-2)Man(a1-6)]Man(b1-4)GlcNAc(b1-4)GlcNAc
Outline: as §1

[35] = target: Fuc(a1-2)Gal(b1-4)[Fuc(a1-3)]GlcNAc(b1-3)Gal(b1-4)[Fuc(a1-3)]GlcNAc
Outline: as §1

[36] = target: Fuc(a1-2)Gal(b1-4)[Fuc(a1-3)]GlcNAc(b1-3)Gal(b1-4)[Fuc(a1-3)]GlcNAc(b1-3)Gal(b1-4)[Fuc(a1-3)]GlcNAc
Outline: as §1

[37] = target: Fuc(a1-2)Gal(b1-4)[Fuc(a1-3)]GlcNAc(b1-3)GalNAc
Outline: as §1

[38] = target: Fuc(a1-2)Gal(b1-4)[Fuc(a1-3)]GlcNAc(b1-3)[Neu5Ac(a2-6)Gal(b1-4)GlcNAc(b1-6)]Gal(b1-4)Glc
Outline: as §1

[39] = target: Fuc(a1-2)Gal3S(b1-4)GlcNAc
Outline: as §1

B1: PFL (Pseudomonas fluorescens) (protein)
chain: MSKYAVANQWGGSSAPWHPGGTWVLGARDNQNVVAIEIKSGDGGKSFTGTMTYAGEGPIGFKAQRTGQNQYNVENQWGGNDAPWHPGGKWVIGGRDNQNVIALSVTSSDGGKNLSGTNTYANEGPIGFRGQIE
glycan array binding signal (z-score) (Fuc(a1-2)Gal): -0.117
glycan array binding signal (z-score) (Fuc(a1-2)Gal(b1-3)GalNAc): -0.112
glycan array binding signal (z-score) [1]: -0.115
glycan array binding signal (z-score) [2]: -0.115
glycan array binding signal (z-score) [3]: -0.114
glycan array binding signal (z-score) [4]: -0.111
glycan array binding signal (z-score) [5]: -0.109
glycan array binding signal (z-score) (Fuc(a1-2)Gal(b1-3)GlcNAc): -0.112
glycan array binding signal (z-score) [6]: 0.214
glycan array binding signal (z-score) [7]: -0.108
glycan array binding signal (z-score) [8]: -0.11
glycan array binding signal (z-score) [9]: -0.116
glycan array binding signal (z-score) [10]: 0.097
glycan array binding signal (z-score) [11]: -0.11
glycan array binding signal (z-score) [12]: -0.108
glycan array binding signal (z-score) [13]: -0.096
glycan array binding signal (z-score) [14]: -0.118
glycan array binding signal (z-score) [15]: -0.044
glycan array binding signal (z-score) [16]: 0.119
glycan array binding signal (z-score) [17]: -0.113
glycan array binding signal (z-score) [18]: 0.109
glycan array binding signal (z-score) [19]: -0.066
glycan array binding signal (z-score) (Fuc(a1-2)Gal(b1-4)Glc): -0.113
glycan array binding signal (z-score) (Fuc(a1-2)Gal(b1-4)Glc6S): -0.109
glycan array binding signal (z-score) (Fuc(a1-2)Gal(b1-4)GlcNAc): -0.119
glycan array binding signal (z-score) [20]: -0.113
glycan array binding signal (z-score) [21]: 0.051
glycan array binding signal (z-score) [22]: -0.102
glycan array binding signal (z-score) [23]: 0.16
glycan array binding signal (z-score) [24]: -0.12
glycan array binding signal (z-score) [25]: -0.049
glycan array binding signal (z-score) [26]: -0.094
glycan array binding signal (z-score) [27]: -0.108
glycan array binding signal (z-score) [28]: -0.104
glycan array binding signal (z-score) [29]: -0.058
glycan array binding signal (z-score) [30]: -0.066
glycan array binding signal (z-score) [31]: -0.115
glycan array binding signal (z-score) [32]: -0.116
glycan array binding signal (z-score) [33]: -0.05
glycan array binding signal (z-score) [34]: -0.013
glycan array binding signal (z-score) [35]: -0.118
glycan array binding signal (z-score) [36]: -0.106
glycan array binding signal (z-score) [37]: -0.102
glycan array binding signal (z-score) [38]: -0.107
glycan array binding signal (z-score) [39]: -0.118
